Measurements from the supplement of paper PMC3334620.
Whole data set: some 33,000 sequences, median “E-score (-0.5 to 0.5)” near -0.016, cut for the highest 2% near 0.32. The list shows a part of the results.

molecular target: T1, Stp1 (UniProt B3LFK1); test: PBM E-score (8-mer binding enrichment) (E-score (-0.5 to 0.5)); higher = stronger / more preferred TF binding; most listed sequences are background and not binding sites; conditions: protein concentration: 200 nM; construct: GST-full length
T1 sequence: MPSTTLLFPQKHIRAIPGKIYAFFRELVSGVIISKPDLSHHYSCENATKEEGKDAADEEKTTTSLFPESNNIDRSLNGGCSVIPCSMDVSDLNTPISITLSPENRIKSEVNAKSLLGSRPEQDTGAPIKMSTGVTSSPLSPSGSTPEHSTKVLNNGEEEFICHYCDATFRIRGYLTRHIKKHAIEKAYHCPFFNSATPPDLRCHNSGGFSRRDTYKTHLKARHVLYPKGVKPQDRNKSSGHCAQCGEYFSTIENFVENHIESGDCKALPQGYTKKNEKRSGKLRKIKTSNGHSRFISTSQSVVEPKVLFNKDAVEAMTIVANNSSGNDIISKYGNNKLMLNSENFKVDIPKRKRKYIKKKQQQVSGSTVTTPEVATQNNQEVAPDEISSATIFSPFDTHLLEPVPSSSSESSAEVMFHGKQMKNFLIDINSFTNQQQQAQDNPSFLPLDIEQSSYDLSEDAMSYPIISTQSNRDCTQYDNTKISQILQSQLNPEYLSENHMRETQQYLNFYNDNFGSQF
Method: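 Universal 'all 10-mer' protein binding microarrays (Agilent AMADID 015681) probed with GST-tagged S. cerevisiae TFs (full-length or DBD) made by in vitro transcription/translation (PURExpress), about 100-200 nM. Bound TF was detected with fluorescent anti-GST. Each ungapped 8-mer (which stands for itself and its reverse complement) is scored by the PBM enrichment score (E-score), a modified Wilcoxon-Mann-Whitney statistic from -0.5 to +0.5, computed with the Universal PBM Analysis Suite. Scale: above 0.35 generally sequence-specific binding.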

Row | Sequence | PBM E-score
1 | GATAAGGA | -0.0309
2 | AACAACTG | 0.0792
3 | CACCTCCC | -0.321
4 | CGGTCAGC | -0.206
5 | AAATTAGC | 0.0441
6 | GCCGAGCA | -0.116
7 | GTATATCA | 0.114
8 | AAAGAGGA | -0.235
9 | AAACAACT | 0.051
10 | GGAGGTTA | -0.237
11 | AGAAGGGA | -0.344
12 | ACGGCCGC | 0.406
13 | GGAAGGGA | -0.309
14 | CACTTCAA | -0.0416
15 | AATGATAC | 0.234
16 | AGGCGCAC | 0.179
17 | CGAGTACC | -0.0293
18 | GACGTCTA | -0.267
19 | ACAACCGG | -0.0919
20 | CATTTGCC | 0.0681
21 | ATACTGTA | 0.225
22 | TTCTGAAA | 0.131
23 | CTTTACCC | 0.00485
24 | CATATTCA | 0.212
25 | AGGGTGAA | -0.262

Row | Sequence | PBM E-score
26 | CGGCATGA | 0.346
27 | CCTGAAAC | 0.167
28 | CGCCCTTA | -0.219
29 | CACTGATC | -0.2
30 | CCGGACGG | 0.0116
31 | CTCTAGGC | -0.0817
32 | GGAGACCA | -0.227
33 | CCCTGCTC | -0.229
34 | CTGCGTGC | 0.0439
35 | GGTGACCA | -0.303
36 | AGTCGTAT | 0.0617
37 | CTTAAATA | -0.0705
38 | CGACCCTA | -0.311
39 | GCCAGTTA | 0.0242
40 | ACTCCCCG | 0.108
41 | AATTGCCG | 0.341
42 | GGCGGACA | -0.0656
43 | GCGTATCC | -0.149
44 | GTGCTTGA | -0.0806
45 | CGAACACG | 0.142
46 | CCCACGCG | -0.12
47 | CAAGTGTG | 0.127
48 | AAGGGGCT | -0.109
49 | ACCCATTA | -0.223
50 | CGGTACGA | -0.0518

Row | Sequence | PBM E-score
51 | CCGATGCG | 0.0673
52 | GGCTTGGA | -0.128
53 | GACAGAGA | -0.0997
54 | CGACGTCG | -0.22
55 | GATTATCA | 0.16
56 | AGTTGGCG | 0.157
57 | GATGGTAA | 0.0115
58 | GAGTTAGA | -0.0275
59 | AATAAAAA | 0.212
60 | CGAAGTCG | -0.0551
61 | ACCATAGG | 0.00774
62 | AAGGAGAC | -0.0851
63 | CGCGTTTA | -0.0505
64 | ATGTACGG | 0.24
65 | CTTGTGGA | 0.016
66 | CATGGGAA | -0.0417
67 | AGGTAGCA | -0.208
68 | CGAAGCCG | 0.251
69 | ACATGCTA | -0.134
70 | GGTAATAA | 0.136
71 | AGAGTCAA | -0.306
72 | AGCAATAT | 0.11
73 | CTAATTAC | -0.0115
74 | CGCACGCG | 0.113
75 | GAATGGGC | -0.113

Row | Sequence | PBM E-score
76 | ACTAAAGG | -0.0249
77 | ATTCACAA | 0.11
78 | CCCCTTCC | -0.224
79 | ATCCGATG | 0.0876
80 | ATCGGTGG | -0.123
81 | GGGGGCAC | -0.266
82 | GATCTGGC | 0.105
83 | CAGAGCAC | -0.00762
84 | CGAAGGCC | -0.129
85 | AGAGCGGG | -0.113
86 | AACTGGCT | -0.188
87 | ACCCATCA | -0.127
88 | AGGGCCCA | -0.232
89 | AGTGAACT | -0.059
90 | GTCCCCTA | -0.281
91 | CATACGAA | 0.105
92 | CTTCCCGC | 0.0561
93 | GAGTTGAA | -0.175
94 | AATAAATC | 0.147
95 | CCTAATCC | -0.275
96 | AAAAGGCG | 0.34
97 | GATAAGGC | 0.216
98 | CTCCGCAG | -0.00431
99 | CTTCATTC | -0.0223
100 | ATATCTGG | -0.184

Row | Sequence | PBM E-score
101 | ACTACGAC | -0.00693
102 | TAAATCCA | -0.00287
103 | CGTAGAAG | 0.178
104 | GGTTTGAC | 0.0251
105 | ATACGTGG | 0.142
106 | CTGAGCTC | -0.0853
107 | CCCTAAAG | -0.0667
108 | CGGGGAGA | -0.31
109 | CACCCTAC | -0.106
110 | CTGGCGCC | 0.314
111 | CGTGATCC | -0.155
112 | CTGCCTTA | -0.0771
113 | ATCGGATA | 0.202
114 | CACATTGC | 0.126
115 | CTCGCTCA | 0.0602
116 | GCATATAA | 0.221
117 | GAGGATGC | -0.124
118 | GATGCCCA | 0.158
119 | CAAAAGAC | 0.0577
120 | AGAATCGG | 0.1
121 | CAAGGCCC | 0.00011
122 | ACTATATG | 0.135
123 | TTAGTGAA | -0.0118
124 | ATGTAGCA | -0.00081
125 | TAAAGTCA | -0.0212

Row | Sequence | PBM E-score
126 | TACCAGGA | 0.00153
127 | AACCTCAG | -0.0867
128 | AAGCAAGG | -0.0277
129 | CTTAGAGA | -0.0858
130 | CTAGAGAA | 0.23
131 | AGGGGAAT | 0.0161
132 | GGAAGCAC | 0.0646
133 | CATATCCC | 0.0688
134 | CGACTCAC | -0.254
135 | CGTACCTA | -0.0292
136 | CGCAAAAG | 0.0708
137 | TATTGCAA | 0.229
138 | GGGGAGAC | -0.346
139 | AACGTATT | 0.195
140 | AGCAGTAT | 0.0883
141 | CAACATGA | 0.118
142 | CAGCTAAA | -0.0461
143 | AAACCAAT | 0.0131
144 | GCGTTAAA | 0.206
145 | GGAAACCC | -0.187
146 | GCCTTTCC | 0.381
147 | GCATATCA | 0.135
148 | CCTTTCCG | 0.0145
149 | AAAATGCA | -0.0731
150 | AACTCAGA | 0.183

Row | Sequence | PBM E-score
151 | CACAGTGC | 0.114
152 | ATCCACTA | -0.0231
153 | CTCCCGAA | -0.282
154 | CTTCACGC | 0.225
155 | AGACGCCC | 0.0951
156 | AAATTTTA | 0.116
157 | GCGCCACA | 0.334
158 | CCAAAATC | 0.134
159 | CCGATTGA | -0.0804
160 | CCATGGCG | 0.236
161 | AACGTGAT | -0.0428
162 | CCACTGGA | -0.241
163 | ATCCTGAG | 0.0111
164 | CTTAAAGC | -0.0457
165 | CCTATCCC | -0.0936
166 | AATTACAG | 0.0891
167 | ATGTGCCA | 0.137
168 | AGTCCTAT | -0.171
169 | CACACTGC | 0.0471
170 | CAGTTCCA | -0.117
171 | CGAAGCAA | -0.0777
172 | ACCCAGTC | -0.33
